According to PubChem BioAssay AID720709 (National Center for Advancing Translational Sciences (NCATS), 2013):
The campaign covered roughly 360,000 compounds. About 520 (0.14%) were called active. The inconclusive results got no clear call from the source; some entries with a clear call stand among them for comparison. Calls come from the whole dose curve; as a rule, active = well fitted inhibition curve with a large enough effect; inconclusive = small, poorly fitted or top-dose-only effect; inactive = no such curve, though single readings can be large or run the other way. Potencies beside an inconclusive call are fits to weak or partial responses and may not hold up.

biological target: Rap guanine nucleotide exchange factor 3 (Homo sapiens) (UniProt O95398); experiment: qHTS for Antagonist of cAMP-regulated guanine nucleotide exchange factor 3 (EPAC1): primary screen; conditions: EPAC1 GEF assay, Rap1b-BODIPY-GDP exchange fluorescence; activity change, negative = inhibition: at 115 µM (top of the series); note: nearly all actives have a fitted effect of over 50% in size;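 for activity change, negative = inhibition: plate controls were vehicle for no effect and positive control for full effect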
Potency is the fitted concentration of half-maximal effect; tags give direction and shape of the fitted curve.

UniProt O95398, sequence (O95398 whole entry, looked up): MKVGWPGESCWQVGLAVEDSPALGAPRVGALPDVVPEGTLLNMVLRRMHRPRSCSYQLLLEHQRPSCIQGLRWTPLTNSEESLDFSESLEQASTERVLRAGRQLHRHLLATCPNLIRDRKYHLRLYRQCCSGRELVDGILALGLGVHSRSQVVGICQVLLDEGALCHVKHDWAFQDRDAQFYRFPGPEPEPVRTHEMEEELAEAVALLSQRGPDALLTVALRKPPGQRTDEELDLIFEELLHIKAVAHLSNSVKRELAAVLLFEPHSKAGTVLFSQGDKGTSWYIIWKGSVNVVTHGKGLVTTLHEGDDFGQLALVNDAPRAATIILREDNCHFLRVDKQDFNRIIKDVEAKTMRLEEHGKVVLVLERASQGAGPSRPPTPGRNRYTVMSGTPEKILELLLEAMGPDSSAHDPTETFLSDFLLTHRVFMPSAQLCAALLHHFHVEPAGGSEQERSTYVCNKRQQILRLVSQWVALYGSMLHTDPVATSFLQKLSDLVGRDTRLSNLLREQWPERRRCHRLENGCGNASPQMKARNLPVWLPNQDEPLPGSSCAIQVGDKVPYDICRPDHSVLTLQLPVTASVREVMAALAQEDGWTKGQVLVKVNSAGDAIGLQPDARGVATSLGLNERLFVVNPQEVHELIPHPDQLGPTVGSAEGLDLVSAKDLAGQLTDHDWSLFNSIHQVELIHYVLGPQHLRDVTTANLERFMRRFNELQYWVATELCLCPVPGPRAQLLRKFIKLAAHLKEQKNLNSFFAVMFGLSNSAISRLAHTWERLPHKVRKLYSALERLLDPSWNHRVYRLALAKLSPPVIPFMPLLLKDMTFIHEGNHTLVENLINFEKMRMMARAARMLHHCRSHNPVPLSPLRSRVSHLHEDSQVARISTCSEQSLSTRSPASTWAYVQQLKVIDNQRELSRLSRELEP

Activity change, negative = inhibition, inactive:
N#CCSc1nc2c(cc1C#N)CCCC2 -10.6%, CCC(COC(=O)c1ccccc1)Oc1cc(NCc2ccccc2)c2ncn(C(C)C)c2c1 (centres undefined) -15.4%, CC(=Nc1ccc(Br)cc1)c1sc2ccccc2c1O -3.33%, O=C(CCCOc1ccc(Br)cc1)Nc1nnc(C2CC2)s1 16.5%, COC(=O)c1ccsc1NC(=O)CSc1nnnn1-c1ccccc1SC 6.08%, COc1ccc(NC(=O)CN(C)S(=O)(=O)c2ccc(Cl)cc2)cn1 -27%, CCC(=O)NC(c1ccccc1OC)c1ccc2cccnc2c1O (centres undefined) -0.0913%, CCc1ccc(-c2cc(C)no2)cc1S(=O)(=O)N1CCN(c2ccccc2)CC1 -27%, CS(=O)(=O)N1CCN(c2nc3ccccc3s2)CC1 4.96%, Cc1nn(-c2ccccc2)cc1C(c1c(N)[nH]c(=S)[nH]c1=O)c1c(N)[nH]c(=S)[nH]c1=O 25.4%, O=C(N[C@@H](Cc1ccccc1)C(=O)CCl)OCc1ccccc1 -27.5%, Cc1ccc(S(=O)(=O)CCC(=O)N(C)C2CCCCC2)cc1 5.13%, N/C(=N\OC(=O)COc1ccc(Br)cc1Cl)c1ccccn1 -26.9%

Activity change, negative = inhibition, inconclusive:
COCc1cc(N2CCCC2)nc(-c2ccccc2)n1 -16.5% [inhibitor], Cc1c(C)c2c(OCC(=O)NC3CC3)cc3c(c2oc1=O)CCC(C)(C)O3 -30.2% [inhibitor]

Potency, inconclusive:
Cc1cc(C)cc(NC(=O)c2nnn(Cc3cc(C)ccc3C)c2N)c1 50.1 µM [inhibitor, partial curve], CN(CC(=O)Nc1ccc(F)cc1)C(=O)COC(=O)/C=C/c1ccccc1[N+](=O)[O-] 10 µM [inhibitor, partial curve], O=C1Nc2ccc(NS(=O)(=O)c3cccs3)c3cccc1c23 100 µM [inhibitor, single point], CCc1nnc(NS(=O)(=O)c2ccc(Nc3ccc([N+](=O)[O-])c4nonc34)cc2)s1 56.2 µM [inhibitor, partial curve], Cc1ccccc1/C=C1\SC(=S)N(/N=C/c2cc([N+](=O)[O-])ccc2O)C1=O 28.2 µM [inhibitor, single point], O=C(CCCC(=O)c1ccccc1)Nc1ccc(O)cc1 79.4 µM [inhibitor, partial curve], Cc1cc(Cn2nc(C(=O)NCc3cccc(Br)c3)cc2-c2ccccc2)on1 2.82 µM [inhibitor, full curve, poor fit], COc1cc(C(C(=O)Nc2c(C)cccc2C)N(C)C(=O)c2ccc(-n3cnnn3)cc2)ccc1O (centres undefined) 2.51 µM [inhibitor, full curve, poor fit], Cc1ccc(SCC(=O)N2CCC(C(N)=O)CC2)cc1 50.1 µM [inhibitor, full curve], N#CC1CC(c2ccccc2)=NN1c1ccccc1[N+](=O)[O-] (centres undefined) 11.2 µM [inhibitor, full curve], O=C(COC(=O)c1ccc2ncsc2c1)NCc1cccc(Cl)c1 11.2 µM [inhibitor, partial curve], CC(C)(C)C1CCC(=NNC(=S)NCc2ccccc2)CC1 (centres undefined) 100 µM [inhibitor, single point], COc1cc2c(cc1OC)-c1cc(NCc3ccccn3)nc(=O)n1CC2 56.2 µM [inhibitor, partial curve], O=C1Cc2cc(S(=O)(=O)N3CCNCC3)ccc2N1 89.1 µM [inhibitor, single point], CCCCn1c(SCC(=O)c2ccc(O)c(O)c2)nc2ccsc2c1=O 17.8 µM [inhibitor, full curve], Cc1nn(-c2ccccc2)c(Cl)c1/C=C1\SC(=S)NC1=O 70.8 µM [inhibitor, partial curve], COc1cc(OC)cc(C(=O)NCCc2ccc(OC)c(OC)c2)c1 89.1 µM [inhibitor, single point], COc1ccc(OC)c(N=Cc2c(O)[nH]c3ccccc23)c1 28.2 µM [inhibitor, partial curve, poor fit], CCN(CC)c1ccc(/C=N/NC(=S)NCc2ccccc2)c(O)c1 8.91 µM [inhibitor, full curve, poor fit], C[C@@H]1O[C@@H](Oc2c(-c3cc(O)c(O)c(O)c3)oc3cc(O)cc(O)c3c2=O)[C@H](O)[C@H](O)[C@H]1O 89.1 µM [inhibitor, single point], C/C(CC(=O)Nc1ccc(Cl)c(C(F)(F)F)c1)=N\NC(=O)c1cc2ccccc2cc1O 100 µM [inhibitor, single point], CCc1ccc(NC(=O)c2cc(S(=O)(=O)N3CCc4ccccc43)cn2C)cc1 39.8 µM [inhibitor, partial curve], Cc1ccc(-c2cc(-c3ccc(F)cc3)nc(N)c2C#N)o1 14.1 µM [inhibitor, partial curve], COc1ccc(C(=O)N(C)Cc2nc3ccccc3c(=O)[nH]2)cc1S(=O)(=O)N1CCCC1 112 µM [inhibitor, partial curve, poor fit], CCCCc1ccc(NC(=S)NCCc2ccc(F)cc2)cc1 20 µM [inhibitor, full curve], CC(C)c1ccc(/C=C/C(=O)Nc2ccc(CN3CCOCC3)cc2)cc1 3.55 µM [inhibitor, full curve, poor fit], O=C(NC1CCOCC1)C1CCC(=O)N(Cc2ccc(Cl)cc2)C1 (centres undefined) 3.16 µM [inhibitor, full curve, poor fit], O=C(/C=C/c1ccccc1Cl)NNC(=O)c1cccs1 100 µM [inhibitor, single point]

Potency, active:
Cc1ccc(-c2nn(-c3ccccc3)cc2C=C2SC(=S)N(CCS(=O)(=O)O)C2=O)cc1 7.94 µM
